From PubChem BioAssay AID1745853 (National Center for Advancing Translational Sciences (NCATS), 2022)
The other results are listed elsewhere or left out. The main result of the screen is listed elsewhere. These columns were measured beside it and carry no call.

What was measured:
Experiment in all cases: Primary Screen for Target Class Profiling of Small Molecule Inhibitors of Methyltransferases
[1] = biological target: Glycine N-methyltransferase (Homo sapiens) (UniProt Q14749); conditions: purified enzyme, MTase-Glo SAH luminescence; measured here: GNMT inhibition; at 40 µM; stronger effect = lower value
Summary of the method: (§1)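 Each enzyme was reacted with SAM and its substrate, with compounds tested once at 40 uM; SAH formed was read by MTase-Glo luminescence.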

[2] = biological target: Guanidinoacetate N-methyltransferase (Homo sapiens) (UniProt Q14353); conditions: purified enzyme, MTase-Glo SAH luminescence; measured here: GAMT inhibition; at 40 µM; stronger effect = lower value
Summary of the method: as §1

[3] = biological target: Histamine N-methyltransferase (Homo sapiens) (UniProt P50135); conditions: purified enzyme, MTase-Glo SAH luminescence; measured here: HNMT inhibition; at 40 µM; stronger effect = lower value
Summary of the method: as §1

[4] = biological target: Nicotinamide N-methyltransferase (Homo sapiens) (UniProt P40261); conditions: purified enzyme, MTase-Glo SAH luminescence; measured here: NNMT inhibition; at 40 µM; stronger effect = lower value
Summary of the method: as §1

[5] = biological target: Phenylethanolamine N-methyltransferase (Homo sapiens) (UniProt P11086); conditions: purified enzyme, MTase-Glo SAH luminescence; measured here: PNMT inhibition; at 40 µM; stronger effect = lower value
Summary of the method: as §1
% is scaled to controls: 0 for no effect and ±100 for the full control effect.

SMILES | activity change, negative = inhibition [1] | activity change, negative = inhibition [2] | activity change, negative = inhibition [3] | activity change, negative = inhibition [4] | activity change, negative = inhibition [5]
COCCNc1nc2c(S(=O)(=O)c3c(C)cc(C)cc3C)nnn2c2ccccc12 | -2.89% | 0.645% | 7.5% | 2.76% | -2.16%
Cc1ccccc1CNC(=O)c1ccc2c(c1)C(O)CCCCCN2C (stereo not given) | -5.5% | -2.45% | -6.64% | -13.9% | 9.95%
CC(C(=O)NCc1cccc(Cl)c1)n1ccc2cc(S(=O)(=O)N3CCCCC3)ccc21 (stereo not given) | -6.68% | -1.73% | -5.03% | -7.05% | -5.94%
CC(C)OCCCNC(=O)c1cc2n(n1)CC(C)(C(=O)NC1CCCC1)N(C)C2=O (stereo not given) | 3.71% | 3.11% | -7.67% | 4.28% | -5.09%
O=C(Cn1ccc2cc(S(=O)(=O)N3CCCCC3)ccc21)N1CCN(c2ccccc2)CC1 | -1.46% | 5.46% | 1.58% | -10.3% | -2.16%
COc1cc(C(O)CO)ccc1O (stereo not given) | 10% | 11.5% | 11.9% | -9.38% | -2.69%
CCOc1ccc(CC(=O)N2CCC[C@H]2c2nc(-c3ccc(OC)cc3)no2)cc1 | -8.25% | -5.7% | -4.59% | -10.8% | 3.19%
C[C@H]1C[C@H]2[C@@H]3CCC4=CC(=O)C=C[C@]4(C)[C@@]3(F)[C@@H](O)C[C@]2(C)[C@@]1(O)C(=O)COP(=O)(O)O | 6.29% | 8% | 10.7% | -4.97% | 7.98%
O=C(NC1CCCC1)C1c2ccccc2C(=O)N(C2CCCC2)C12CCCCC2 (stereo not given) | -2.8% | 0.306% | -0.425% | -9.96% | -0.59%
CC(C/C=C/C(C)(C)O)C1CCC(C)(O)C(O)C1 (stereo not given) | 4.91% | 5.5% | 4.74% | -7.9% | 1.29%
CCOc1ccccc1CN1C(=O)c2cc(-c3ccco3)nn2CC1(C)C(=O)NC1CCCCC1 (stereo not given) | -0.701% | 1.55% | 8.72% | 5.11% | -0.432%
COc1ccc(Cn2c(=O)c3ccccc3n3c(-c4ccc(O)cc4)nnc23)cc1 | -4.46% | 0.891% | 5.29% | -0.699% | 0.962%
C=CCn1c(=O)c2ccc(C(=O)NC(C)C)cc2n2c(=O)n(CC(=O)Nc3ccc(C)c(F)c3)nc12 | 8.29% | 1.01% | 7.62% | 5.88% | 0.929%
CCOC(=O)C1CCN(C(=O)CNS(=O)(=O)c2ccc3nc(C)sc3c2)CC1 | 2.73% | -3.99% | 6.94% | 9.19% | 2.25%
COCCN1CCC(CN(Cc2ccncc2)C(=O)C2CC23CCCC3)CC1 (stereo not given) | -6.07% | -7.38% | -4.87% | -14.5% | 2.96%
CCCn1c(=O)c2cc(Cl)ccc2n2c(=O)n(Cc3cccc(Cl)c3)nc12 | 1.74% | 3.46% | 6.07% | -0.726% | -1.17%
Cc1ccc(NC(=O)Cn2nc3n(CCC(C)C)c(=O)c4ccc(C(=O)NC(C)C)cc4n3c2=O)cc1C | 10.4% | 1.14% | 9.28% | 6.86% | 4.21%
C=C(COC(=O)C(C)C)C1Oc2cc(C(C)=O)ccc2C1OC(=O)C(C)C (stereo not given) | 1.69% | 3.38% | 9.08% | -8.66% | -4.38%
CC(=O)NC1(C)CCN(Cc2ccc(-c3ccc([S+](C)(=O)[O-])cc3)cc2)C1 (stereo not given) | -5.12% | 1.91% | -23.1% | -2.08% | -6.09%
COCc1ccc2c(c1)c(OC(C)(C)C(=O)N1CCN(C)CC1)nn2CCC(C)C | -4.91% | -3.69% | -2.25% | -11.7% | 2.43%
c1ccc(CC2=NOC3(CCN(Cc4c[nH]c5ccccc45)CC3)C2)cc1 | -4.33% | 2.12% | -27.1% | -10.1% | -38.5%
COC(=O)c1cc2n(n1)CC(C)(C(=O)NC1CCCCC1)N(c1ccc(F)cc1)C2=O (stereo not given) | 3.93% | 0% | 9.99% | 4.38% | 2.34%
COc1ccc(CNC(=O)Cn2ccc3cc(S(=O)(=O)N4CCCCC4)ccc32)cc1 | 4.83% | 1.19% | 5.02% | 2.34% | 4.25%
O=C(CCCc1nnc2n3nc(-c4ccccc4)nc3c3ccccc3n12)NCc1ccccc1 | -7.34% | -2.23% | -6.51% | -6.47% | -11.2%
OCC1OC(Oc2cc(O)c3c(c2)OC(c2ccc(O)cc2)C(O)C3)C(O)C1O (stereo not given) | -0.557% | -4.76% | 1.46% | -13.8% | 1.54%
CCOC(=O)c1cc2n(n1)CC(C)(C(=O)NC1CCCCCC1)N(c1ccccc1CC)C2=O (stereo not given) | 7.46% | 0% | -2.2% | 8.88% | 6.46%
O=C(CCc1conc1-c1ccccc1F)NCc1ccc(Cl)cc1 | -4.71% | -5.15% | -0.248% | -14.1% | 4.35%
O=C(c1csc2nc(-c3ccc(F)cc3)cn12)N1C[C@H]2CC[C@@H](C1)N2 | -7.15% | -1.55% | -5.55% | -0.544% | -1.86%
CN1C(=O)c2cc(C(=O)NCc3ccc4c(c3)OCO4)nn2CC1(C)C(=O)NC1CCCCCC1 (stereo not given) | 4.54% | 0% | 2.38% | 6.68% | 2.37%
COC(=O)c1cc2n(n1)CC(C)(C(=O)NC1CCCCC1)N(c1cccc(C)c1C)C2=O (stereo not given) | 7.39% | 0% | 12.3% | 11.7% | 7.43%
